# Measurements: the supplement of paper PMC3334620
# Over roughly 33,000 sequences, “E-score (-0.5 to 0.5)” has its median near -0.043; the highest 2% begin near 0.37. Some of the results follow.
# Biological target: T1, Upc2 (UniProt Q12151)
# T1 sequence: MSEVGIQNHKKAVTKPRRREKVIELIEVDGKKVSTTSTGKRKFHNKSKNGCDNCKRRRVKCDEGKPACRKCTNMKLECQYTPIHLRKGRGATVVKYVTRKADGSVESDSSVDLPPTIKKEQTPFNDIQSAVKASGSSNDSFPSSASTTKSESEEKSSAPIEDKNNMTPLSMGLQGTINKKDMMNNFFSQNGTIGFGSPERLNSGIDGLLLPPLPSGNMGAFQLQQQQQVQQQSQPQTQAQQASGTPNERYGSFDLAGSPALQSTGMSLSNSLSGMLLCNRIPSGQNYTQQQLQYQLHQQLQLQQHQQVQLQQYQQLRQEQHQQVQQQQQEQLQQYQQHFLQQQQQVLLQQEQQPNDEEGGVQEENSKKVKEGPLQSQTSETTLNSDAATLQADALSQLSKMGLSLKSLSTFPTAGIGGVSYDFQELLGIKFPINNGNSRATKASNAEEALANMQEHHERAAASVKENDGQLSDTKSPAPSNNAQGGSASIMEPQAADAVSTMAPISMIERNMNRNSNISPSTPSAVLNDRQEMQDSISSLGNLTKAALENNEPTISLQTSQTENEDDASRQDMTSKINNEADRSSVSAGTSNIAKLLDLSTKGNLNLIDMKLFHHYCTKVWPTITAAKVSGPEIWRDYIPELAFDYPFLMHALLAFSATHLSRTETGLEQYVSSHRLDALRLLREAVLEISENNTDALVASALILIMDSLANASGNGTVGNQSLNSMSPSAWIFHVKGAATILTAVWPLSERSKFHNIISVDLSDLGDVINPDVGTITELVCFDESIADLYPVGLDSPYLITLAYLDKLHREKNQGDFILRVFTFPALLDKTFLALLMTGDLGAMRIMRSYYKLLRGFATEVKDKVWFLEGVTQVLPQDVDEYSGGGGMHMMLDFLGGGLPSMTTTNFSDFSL
# Experiment: PBM E-score (8-mer binding enrichment) (E-score (-0.5 to 0.5)); higher = stronger / more preferred TF binding; most listed sequences are background and not binding sites
# Settings: protein concentration: 200 nM; construct: GST-full length
# Method: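 Universal 'all 10-mer' protein binding microarrays (Agilent AMADID 015681) probed with GST-tagged S. cerevisiae TFs (full-length or DBD) made by in vitro transcription/translation (PURExpress), about 100-200 nM. Bound TF was detected with fluorescent anti-GST. Each ungapped 8-mer (which stands for itself and its reverse complement) is scored by the PBM enrichment score (E-score), a modified Wilcoxon-Mann-Whitney statistic from -0.5 to +0.5, computed with the Universal PBM Analysis Suite. Scale: above 0.35 generally sequence-specific binding.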
row,Sequence,PBM E-score
1,GCCCTAAA,-0.0187
2,ACTCTTCG,0.178
3,ACCAAACG,0.4
4,ACTCCAGT,-0.0814
5,GAGTTTAC,0.121
6,CTACTGTC,-0.148
7,ACTAACAT,0.0896
8,AGTACGAG,0.428
9,AACGGCGT,0.283
10,CGACTTAG,0.213
11,GCTAACTA,0.0445
12,GAGTTCGA,0.0819
13,AATCGGGG,-0.249
14,AATATAGC,-0.108
15,AGAAGAAA,0.0534
16,GCTAGCAA,-0.184
17,CGCGGGGC,-0.036
18,CAGCCGCC,-0.17
19,ACTAGAGC,-0.0879
20,ACATAGGA,-0.115
21,GCTCTCGA,-0.208
22,GAGGTCCC,-0.202
23,AATTATCG,0.17
24,TGCGCACA,0.0459
25,TACTAGTA,0.0872

row,Sequence,PBM E-score
1,ATATTACC,-0.138
2,ATATCGAC,0.0601
3,CGTATTCA,0.313
4,CGATTACG,0.259
5,ATACCAGC,-0.184
6,AGGTTGAT,-0.157
7,ATTTGAAG,-0.0186
8,GACCTACC,-0.0781
9,CCGACTCA,-0.101
10,CAAGAGTA,-0.0891
11,GAGACCAC,-0.198
12,CGATCGGA,0.0957
13,AGTTTGTA,-0.0335
14,AATCGAAA,-0.00364
15,GCAACGAC,0.326
16,CTCATGTA,0.0445
17,AAAGCGGG,-0.135
18,CGCGACTC,-0.00274
19,TATAGAGA,0.0987
20,CGTGACAC,-0.0354
21,AGCAGATG,-0.221
22,CCATTTCA,-0.241
23,CCGGGTAC,0.262
24,CTCACCCA,-0.234
25,ATTAGACC,-0.152

row,Sequence,PBM E-score
1,CCGCAAAA,0.0377
2,CAACGACC,0.221
3,GTGGGAAA,-0.00915
4,AGGACCCC,-0.219
5,CGGGCCCA,-0.191
6,CCGATTCA,-0.172
7,ACAACTTC,0.00079
8,CGGCCTCA,0.0532
9,GAATTAGA,-0.0305
10,ACACTTTG,-0.0624
11,GCTGCAAA,0.00241
12,TTATGAAA,0.0712
13,AGCTCGTC,0.103
14,GACTATCC,-0.158
15,ATTAGTAG,-0.141
16,GCCACGGA,-0.271
17,AACAACTT,-0.016
18,CTCCCATC,-0.189
19,CAGAGACA,-0.356
20,ACACCTCT,-0.0564
21,AGCCTAGC,-0.103
22,AACCCTCT,-0.202
23,AGACCCGA,0.114
24,CCGCGTCA,-0.148
25,AATCGAAG,0.159

row,Sequence,PBM E-score
1,CAATCCTG,-0.13
2,CACTCCGG,-0.0799
3,ATGGCTGA,-0.139
4,CGCCGGAC,-0.2
5,CCGATGCC,-0.0622
6,ATTTGCGG,0.0282
7,TAGCGAGA,0.215
8,AACCCGAA,0.204
9,TGCTACCA,-0.19
10,CTACACTC,-0.0739
11,ACCTCTTG,-0.221
12,TAGCACGA,0.0364
13,GATCTGTA,-0.0783
14,GTATCTGA,0.134
15,AGGTCATG,-0.0294
16,CCGTGACA,-0.256
17,AGGCTTTG,-0.17
18,CGGGTGGC,0.0279
19,CTCCCGGC,-0.258
20,AAACGTCT,0.216
21,CGTTGTCA,-0.00138
22,AAGTGGAT,-0.121
23,AGGTCAGA,-0.199
24,ATGCTCGG,0.0505
25,TTAGTCAA,-0.0747

row,Sequence,PBM E-score
1,GACTGGGC,-0.172
2,GAATACTC,-0.0364
3,ACGTGGGG,-0.115
4,ATACGAGA,0.482
5,CGATCTGC,0.0241
6,GCGAGGTA,0.244
7,GTCGATGA,-0.0939
8,CCGAGGCC,0.102
9,CAACTGTC,-0.249
10,ATACTTCC,-0.0854
11,CCTCTAGA,-0.103
12,ATACTTGC,-0.0735
13,GCGAGTAC,0.204
14,AGTCAGCA,-0.16
15,ACAGGGGA,-0.12
16,CCTTGTCC,-0.205
17,TACGTGGA,0.189
18,CGTTGAAG,0.186
19,CTCTGCTC,-0.214
20,AGCTTAAT,0.0773
21,ATACCCTG,0.00625
22,AGAATAAG,-0.128
23,GCCATCTA,-0.299
24,CCTGTAGA,-0.136
25,AGATCAAA,-0.104

row,Sequence,PBM E-score
1,CTAAGCCA,-0.28
2,CTGAGTAA,-0.265
3,ATAATAAC,0.103
4,ACTCCACG,0.0814
5,AAATGAAG,0.102
6,AACGCGCA,0.0842
7,ACTGCTGA,-0.176
8,ACAAACCA,-0.183
9,AGTTGGAC,-0.148
10,CTCCTTGA,-0.347
11,ACCAAGCT,-0.0663
12,CATGTTGG,-0.0749
13,GGCAATCA,-0.196
14,CACCAGGG,-0.261
15,ACGAGTAT,0.376
16,AGTCCCAG,-0.0172
17,AAAAAATT,0.0974
18,CCGTTAAC,0.298
19,GGGCCGCA,-0.0995
20,CCTGGTGC,-0.16
21,GCGGAGGA,-0.187
22,AAACGGAA,0.36
23,ACGCGTGG,0.0348
24,CCAGACGC,-0.196
25,CAACTAAC,0.0136

row,Sequence,PBM E-score
1,CCTATGGA,-0.264
2,ATGTGTAC,0.216
3,ATGAGCTG,-0.187
4,AGCACTAC,-0.182
5,ACCCTGCG,-0.145
6,AAGTGCCT,-0.168
7,CAACCGGC,-0.159
8,ATTAGCTA,-0.0268
9,ATTCGCCC,-0.215
10,ATAGCGCC,-0.111
11,CAAGCAGA,-0.0226
12,AACCTAAC,-0.0536
13,AAGGTGGG,-0.181
14,TGCCCAAA,-0.181
15,CCAGATAA,-0.0256
16,GGCATTTA,-0.274
17,CTGTGGCC,-0.212
18,AGCTGTTC,-0.133
19,AAACAGGT,-0.0304
20,CAATTAAG,-0.014
21,GACCGTGA,-0.166
22,AAAGCAAA,0.0651
